Measurements: the supplement of paper PMC4967469
By IC50 is meant the dose at which the fit gives 50% viability; a limit (>, <) means that the fit lies beyond the doses tested. AUC, from the same fit, is the share of area under the viability curve across the 256-fold dose range; the more sensitive the line, the further below 1. For some of these results: An inferred top dose was calculated from the reported fits. For some of these results: Drugs with an entry number were screened twice under separate entries, and the two screens often disagree.

What was measured:
Assay in all cases: Viability of human cancer cell lines after 72 h of drug (GDSC screen)
Tretinoin = compound: CC1=C(/C=C/C(C)=C/C=C/C(C)=C/C(=O)O)C(C)(C)CCC1 [Tretinoin]; conditions: top dose 10 µM; top dose inferred
Protocol: (§1)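 Human cancer cell lines in 384-well plates, medium with 10% serum, drug for 72 h over a 256-fold dose range (nine 2-fold or five 4-fold steps up to the top dose). Adherent lines were fixed and stained with the nucleic acid dye Syto60, suspension lines read with resazurin; signal relative to control wells, capped at 0 and 100%. One two-parameter sigmoid per drug and line, fitted in a mixed model over all curves with the slope shared within a line.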

SB-505124 = compound: Cc1cccc(-c2[nH]c(C(C)(C)C)nc2-c2ccc3c(c2)OCO3)n1 [SB-505124]; conditions: top dose 10 µM; top dose inferred
Protocol: as §1

GSK690693 = compound: CCn1c(-c2nonc2N)nc2c(C#CC(C)(C)O)ncc(OC[C@H]3CCCNC3)c21 [GSK690693]; conditions: top dose 10.24 µM; top dose inferred
Protocol: as §1

PI-103 = compound: Oc1cccc(-c2nc(N3CCOCC3)c3oc4ncccc4c3n2)c1 [PI-103]; conditions: top dose 10.24 µM
Protocol: as §1

UNC0638 = compound: COc1cc2c(NC3CCN(C(C)C)CC3)nc(C3CCCCC3)nc2cc1OCCCN1CCCC1 [UNC0638]
Protocol: as §1

BX-795 = compound: O=C(NCCCNc1nc(Nc2cccc(NC(=O)N3CCCC3)c2)ncc1I)c1cccs1 [BX-795]; conditions: top dose 5 µM; top dose inferred
Protocol: as §1

[1] = top dose 20 µM, screen: GDSC drug entry 1236, top dose inferred
[2] = top dose 40 µM, screen: GDSC drug entry 245

Row | Cell Line | AUC (Tretinoin) | IC50 (Tretinoin) [µM] | AUC (SB-505124) | IC50 (SB-505124) [µM] | AUC (GSK690693) | IC50 (GSK690693) [µM] | AUC (PI-103) | IC50 (PI-103) [µM] | AUC (UNC0638; [1]) | IC50 (UNC0638; [1]) [µM] | AUC (UNC0638; [2]) | IC50 (UNC0638; [2]) [µM] | AUC (BX-795) | IC50 (BX-795) [µM]
1 | KP-3 (pancreas, adherent) | 0.984 | > 10 | 0.95 | > 10 | 0.956 | > 10.2 | 0.941 | > 10.2 | 0.834 | 16.7 | 0.77 | 18.1 | 0.896 | > 5
2 | KU-19-19 (bladder, adherent) | 0.97 | > 10 | 0.986 | > 10 | 0.984 | > 10.2 | 0.978 | > 10.2 | 0.789 | 8.81 | 0.987 | > 40 | 0.908 | > 5
3 | KYAE-1 (oesophagus, suspension) | 0.799 | 5.39 | 0.948 | > 10 | 0.362 | 0.256 | 0.238 | 0.101 | 0.796 | 10.5 | 0.724 | 11.6 | 0.975 | > 5
4 | KYM-1 (rhabdomyosarcoma, adherent) | 0.957 | > 10 | 0.852 | 6.06 | 0.991 | > 10.2 | 0.641 | 1.47 | 0.864 | 13.4 | 0.894 | 35.9 | 0.861 | 3.29
5 | KYSE-50 (oesophagus, adherent) | 0.927 | > 10 | 0.989 | > 10 | 0.923 | > 10.2 | 0.225 | 0.111 | 0.989 | > 20 | 0.916 | > 40 | 0.888 | 4.8
6 | KYSE-150 (oesophagus, adherent) | 0.987 | > 10 | 0.988 | > 10 | 0.945 | > 10.2 | 0.778 | 3.98 | 0.831 | 11.9 | 0.901 | > 40 | 0.841 | 3.27
7 | KYSE-220 (oesophagus, adherent) | 0.886 | > 10 | 0.949 | > 10 | 0.8 | 5.29 | 0.419 | 0.379 | 0.83 | 13.5 | 0.885 | > 40 | 0.801 | 2.6
8 | KYSE-410 (oesophagus, adherent) | 0.968 | > 10 | 0.984 | > 10 | 0.913 | > 10.2 | 0.98 | > 10.2 | 0.802 | 10.6 | 0.856 | 35.6 | 0.822 | 3.19
9 | KYSE-450 (oesophagus, adherent) | 0.961 | > 10 | 0.98 | > 10 | 0.88 | 9.55 | 0.342 | 0.24 | 0.8 | 9.05 | 0.643 | 6.05 | 0.949 | > 5
10 | KYSE-510 (oesophagus, adherent) | 0.938 | > 10 | 0.991 | > 10 | 0.98 | > 10.2 | 0.91 | 10.2 | 0.827 | 9.55 | 0.847 | 22.3 | 0.864 | 3.21
11 | KYSE-520 (oesophagus, adherent) | 0.957 | > 10 | 0.979 | > 10 | 0.907 | > 10.2 | 0.481 | 0.558 | 0.825 | 18 | 0.803 | 28.4 | 0.902 | > 5
12 | LC-1-sq (lung squamous cell carcinoma, adherent) | 0.931 | > 10 | 0.953 | > 10 | 0.948 | > 10.2 | 0.978 | > 10.2 | 0.828 | 15.2 | 0.751 | 15.1 | 0.907 | > 5
13 | LCLC-97TM1 (large cell lung carcinoma, adherent) | 0.937 | > 10 | 0.981 | > 10 | 0.678 | 2.12 | 0.313 | 0.181 | 0.756 | 7.43 | 0.648 | 6.7 | 0.861 | 4.94
14 | LCLC-103H (large cell lung carcinoma, adherent) | 0.937 | > 10 | 0.99 | > 10 | 0.917 | > 10.2 | 0.532 | 0.776 | 0.99 | > 20 | 0.759 | 12.7 | 0.866 | 3.78
15 | LK-2 (lung squamous cell carcinoma, adherent) | 0.989 | > 10 | 0.971 | > 10 | 0.989 | > 10.2 | 0.721 | 2.59 | 0.791 | 8.42 | 0.68 | 7.7 | 0.768 | 1.77
16 | LN-18 (glioma, adherent) | 0.992 | > 10 | 0.993 | > 10 | 0.993 | > 10.2 | 0.994 | > 10.2 | 0.987 | > 20 | 0.895 | 32.2 | 0.902 | 4.31
17 | LNZTA3WT4 (glioma, adherent) | 0.989 | > 10 | 0.93 | > 10 | 0.982 | > 10.2 | 0.796 | 4.67 | 0.882 | > 20 | 0.869 | 35.7 | 0.868 | 4.42
18 | LOU-NH91 (lung squamous cell carcinoma, adherent) | 0.973 | > 10 | 0.984 | > 10 | 0.986 | > 10.2 | 0.959 | > 10.2 | 0.843 | 16 | 0.831 | 28.6 | 0.932 | > 5
19 | LS-180 (large intestine, adherent) | 0.975 | > 10 | 0.975 | > 10 | 0.969 | > 10.2 | 0.972 | > 10.2 | 0.982 | > 20 | 0.9 | > 40 | 0.981 | > 5

Row | Cell Line | AUC (Tretinoin) | IC50 (Tretinoin) [µM] | AUC (SB-505124) | IC50 (SB-505124) [µM] | AUC (GSK690693) | IC50 (GSK690693) [µM] | AUC (PI-103) | IC50 (PI-103) [µM] | AUC (UNC0638; [1]) | IC50 (UNC0638; [1]) [µM] | AUC (UNC0638; [2]) | IC50 (UNC0638; [2]) [µM] | AUC (BX-795) | IC50 (BX-795) [µM]
20 | LU-135 (small cell lung carcinoma, suspension) | 0.984 | > 10 | 0.992 | > 10 | 0.915 | > 10.2 | 0.213 | 0.112 | 0.83 | 9.73 | 0.639 | 5.62 | 0.73 | 1.22
21 | LoVo (large intestine, adherent) | 0.954 | > 10 | 0.971 | > 10 | 0.987 | > 10.2 | 0.941 | > 10.2 | 0.983 | > 20 | 0.936 | > 40 | 0.926 | > 5
22 | MC-IXC (neuroblastoma, adherent) | 0.311 | 0.217 | 0.996 | > 10 | 0.994 | > 10.2 | 0.73 | 2.33 | 0.996 | > 20 | 0.863 | 20.5 | 0.863 | 2.56
23 | MDA-MB-330 (breast, adherent) | 0.875 | > 10 | 0.973 | > 10 | 0.96 | > 10.2 | 0.805 | 6.02 | 0.984 | > 20 | 0.839 | 32.8 | 0.981 | > 5
24 | MDA-MB-361 (breast, adherent) | 0.965 | > 10 | 0.98 | > 10 | 0.901 | > 10.2 | 0.947 | > 10.2 | 0.987 | > 20 | 0.942 | > 40 | 0.976 | > 5
25 | MDA-MB-415 (breast, adherent) | 0.97 | > 10 | 0.894 | > 10 | 0.962 | > 10.2 | 0.943 | > 10.2 | 0.896 | > 20 | 0.927 | > 40 | 0.983 | > 5
26 | MDA-MB-436 (breast, adherent) | 0.984 | > 10 | 0.946 | > 10 | 0.984 | > 10.2 | 0.904 | > 10.2 | 0.98 | > 20 | 0.852 | > 40 | 0.943 | > 5
27 | MDA-MB-453 (breast, adherent) | 0.986 | > 10 | 0.965 | > 10 | 0.673 | 2.06 | 0.438 | 0.426 | 0.984 | > 20 | 0.717 | 11.1 | 0.973 | > 5
28 | MDA-MB-468 (breast, adherent) | 0.983 | > 10 | 0.987 | > 10 | 0.845 | 6.98 | 0.66 | 1.75 | 0.839 | 12.9 | 0.72 | 10.2 | 0.754 | 1.62
29 | MEL-JUSO (melanoma, adherent) | 0.984 | > 10 | 0.981 | > 10 | 0.95 | > 10.2 | 0.568 | 1.01 | 0.779 | 9.2 | 0.547 | 3.42 | 0.842 | 4.13
30 | MES-SA (uterus, adherent) | 0.972 | > 10 | 0.961 | > 10 | 0.984 | > 10.2 | 0.962 | > 10.2 | 0.89 | 17.1 | 0.992 | > 40 | 0.844 | 2.83
31 | MFE-280 (endometrium, adherent) | 0.982 | > 10 | 0.915 | > 10 | 0.764 | 4.71 | 0.733 | 3.58 | 0.848 | > 20 | 0.885 | > 40 | 0.975 | > 5
32 | MFE-296 (endometrium, adherent) | 0.956 | > 10 | 0.943 | > 10 | 0.808 | 5.8 | 0.85 | 8.65 | 0.9 | > 20 | 0.97 | > 40 | 0.877 | > 5
33 | MG-63 (osteosarcoma, adherent) | 0.935 | > 10 | 0.982 | > 10 | 0.984 | > 10.2 | 0.984 | > 10.2 | 0.914 | > 20 | 0.886 | > 40 | 0.752 | 1.9
34 | MHH-ES-1 (Ewing sarcoma, adherent) | 0.98 | > 10 | 0.958 | > 10 | 0.895 | > 10.2 | 0.39 | 0.32 | 0.739 | 5.95 | 0.676 | 7.71 | 0.771 | 1.89
35 | MOG-G-CCM (glioma, adherent) | 0.909 | > 10 | 0.958 | > 10 | 0.913 | > 10.2 | 0.417 | 0.365 | 0.817 | 13.6 | 0.711 | 11 | 0.795 | 2.76
36 | MOG-G-UVW (glioma, adherent) | 0.895 | > 10 | 0.947 | > 10 | 0.971 | > 10.2 | 0.515 | 0.701 | 0.846 | 14 | 0.732 | 11.2 | 0.79 | 2.16
37 | MS751 (cervix, adherent) | 0.979 | > 10 | 0.977 | > 10 | 0.99 | > 10.2 | 0.989 | > 10.2 | 0.909 | > 20 | 0.767 | 13.7 | 0.925 | > 5
38 | NB12 (neuroblastoma, adherent) | 0.98 | > 10 | 0.937 | > 10 | 0.921 | > 10.2 | 0.707 | 3.04 | 0.965 | > 20 | 0.806 | 29.5 | 0.874 | > 5
